“And” between values parts separate entries of the source, which are not always exact repeats. Identical values can stand only once. In all, about 48,000 compounds went through this assay and about 1,200 (2.5%) were called active. About 2% were inconclusive and are not listed.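 The calls were made as follows: active = activation of at least 60% and not above a set upper limit (about 1 call in 100 departs from these limits); inconclusive = activation of 40% to 60%, or above that upper limit; inactive = activation under 40%.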 Some of the results follow. Some structures have more than one record in an assay (separate samples or runs), and their calls can disagree.
molecular target: Probable G-protein coupled receptor 32 (Homo sapiens) (UniProt O75388); test: qHTS for Agonists of Human Resolvin D1 Receptor DRV1; settings: CHO-K1 GPR32 beta-arrestin PathHunter luminescence, 90 min; at 76.9 µM; stronger effect = higher value; zero percent set by DMSO-only wells; also: 0% is about no effect
In short: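 Agonism was scored as beta-arrestin recruitment to ProLink-fused GPR32 in stably transfected CHO-K1 cells, giving a chemiluminescent beta-Gal signal; compounds were incubated 90 min at 37 °C.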

Sequence of UniProt O75388 (O75388 whole entry, looked up, the tested form may be a part): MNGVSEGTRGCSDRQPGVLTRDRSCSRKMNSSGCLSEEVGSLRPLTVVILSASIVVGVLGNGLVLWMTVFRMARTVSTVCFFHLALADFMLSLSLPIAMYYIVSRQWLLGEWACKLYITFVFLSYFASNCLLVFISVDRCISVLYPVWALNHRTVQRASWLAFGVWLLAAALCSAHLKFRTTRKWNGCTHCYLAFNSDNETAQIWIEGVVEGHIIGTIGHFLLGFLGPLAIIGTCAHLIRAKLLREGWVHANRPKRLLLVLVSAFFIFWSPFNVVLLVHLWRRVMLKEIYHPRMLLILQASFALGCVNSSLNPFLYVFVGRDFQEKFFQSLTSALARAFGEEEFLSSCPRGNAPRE

Compound | activation
COc1ccc(CCNC(=O)Cn2c(=O)nc(-c3ccccc3)c3cc(Cl)ccc32)cc1OC | inactive: -15.8%
CC(=O)Nc1ccc(S(=O)(=O)NCC2CCC(C(=O)NCCc3ccc(C)cc3)CC2)cc1 (stereo not drawn) | inactive: -6.41%
COc1ccc(NC(=O)Cn2c(-c3ccc(F)cc3)cc(C(C)=O)c2C)c(OC)c1 | inactive: -12%
O=S(=O)(c1ccccc1)n1nc(-c2ccc(Cl)cc2)nc1NCc1ccccc1 | inactive: -14.5%
CCCC1=Nc2cc(C(=O)NC3CCCCC3)ccc2Sc2ccc(C)cc21 | inactive: -23.8%
Cc1cc(C)c2c(=O)c3c(oc2c1)C(=O)N(CCCOC(C)C)C3c1ccccc1F (stereo not drawn) | inactive: 10.4%
COCCCNc1nc2c(c(=O)[nH]c(=O)n2C)n1CC(O)COc1ccc(Cl)cc1 (stereo not drawn) | inactive: -8.15%
COc1cccc(CC(=O)Nc2c(C(=O)N3CCN(c4ccccc4F)CC3)oc3ccccc23)c1 | inactive: -21.6%
N#C/C(=C\c1ccc(F)cc1)c1nc(-c2ccc(-c3ccccc3)cc2)cs1 | inactive: 5.07%
COc1cccc(CNC(=O)c2ccc3c(c2)sc2nc(-c4cccc(OC)c4)cn23)c1 | inactive: -8.73%
COc1ccc(N2CC(NC(=O)C(c3ccccc3)c3ccccc3)CC2=O)cc1 (stereo not drawn) | inactive: -26.3%
CCOC(=O)c1c(S(=O)(=O)N2CCC(C(=O)NCc3ccccc3Cl)CC2)c(C)n(C)c1C | inactive: -6.23%
CCOC(=O)c1c(NC(=O)C(C)Sc2cn(CCNC(=O)c3ccc(OCC)cc3)c3ccccc23)sc2c1CCC2 (stereo not drawn) | inactive: 6.76%
Cc1cccc(N2CCN(C(=O)c3cnn(-c4ccccc4)c3C3CCN(C(=O)OC(C)(C)C)CC3)CC2)c1C | inactive: -18.3%
CCc1nc2nc(C)cc(Nc3cc(C)ccc3C)n2n1 | inactive: 9.75%
CCOC(=O)c1ccc(NC(=O)Cn2nc(C)c3nn(-c4ccc(Cl)cc4)c(C)c3c2=O)cc1 | inactive: -15.6%
Clc1ccc(CSc2nncn3c2cc2occc23)cc1 | inactive: -8.26%
Cc1ccc(Nc2ncnc3c2nc2n3CCCC2)cc1F | inactive: -8.5%
CC(c1cc2ccccc2s1)N(O)C(N)=O (stereo not drawn) | inactive: 8.71%
Cc1nc2nc[nH]n2c(=O)c1NS(=O)(=O)c1ccc(Br)cc1 | inactive: 6.46%
COc1ccccc1CNC(=O)C1CCN(S(=O)(=O)Cc2ccccc2)CC1 | inactive: 11.2%
CC1=C(c2ccc(Cl)cc2)S(=O)(=O)N=C1N1CCN(c2cc(C)ccc2C)CC1 | inactive: -14.2%
COc1cccc(Cn2c(=O)n(Cc3ccccc3)c(=O)c3c2c2cc(OC)ccc2n3C)c1 | inactive: -9.71%
CCCN1CCCc2cc(CN(CCCN3CCOCC3)C(=O)Nc3ccc(Cl)c(Cl)c3)ccc21 | inactive: 0.0212%
COc1ccc(CNC(=O)C(=O)NCC(c2cccnc2)N2CCN(c3ccccc3)CC2)cc1 (stereo not drawn) | inactive: -1.66%
Cc1cccc(N(C)S(=O)(=O)c2ccc3c(c2)NC(=O)CC(=O)N3)c1 | inactive: 7.82%
Cc1cc(C)cc(-n2c(SCC(=O)Nc3ccc4c(c3)OCO4)nc3c([nH]c4ccccc43)c2=O)c1 | inactive: 3.08%

Compound | activation
COc1ccc2sc(N(Cc3cccnc3)C(=O)CCc3ccccc3)nc2c1 | inactive: -27%
Cc1cc2[nH]c(=O)c(=O)[nH]c2cc1S(=O)(=O)N1CCN(c2ccccc2F)CC1 | active: 70.1%
CCOc1c(N2CCOCC2)cnn(C)c1=O | inactive: -16.1%
CCOc1ccc(Nc2nc3c(S(=O)(=O)c4ccc(CC)cc4)nnn3c3ccc(Cl)cc23)cc1 | inactive: 2.21%
CC1CCN(S(=O)(=O)c2ccc3c(ccc(=O)n3CC(=O)NCc3ccc(Cl)cc3)c2)CC1 | inactive: 5.91%
COc1ccc(-c2nc(Cn3c(=O)cc(-c4ccccc4)c4c(C)nn(C)c43)c(C)o2)cc1OC | inactive: -7.21%
CC(=O)c1cccc(NC(=O)CCc2nc3cccnc3n2Cc2cccs2)c1 | inactive: -4.29%
CC(=O)N1CCc2cc(Br)cc(S(=O)(=O)NCCc3ccc(Cl)cc3)c21 | inactive: 14.6%
CC1=C(/C=C/C(C)=C/C=C/C(C)=C/C(=O)Nc2ccc(O)cc2)C(C)(C)CCC1 | active: 84.2% and inactive: 26.9%
CCOC(=O)CSc1nc(-c2ccc(F)cc2)cc(C(F)(F)F)c1C#N | inactive: 33.5%
O=C(c1cccn1-c1nnc(N2CCCCC2)s1)N1CCN(c2ccc(Cl)cc2)CC1 | inactive: -0.232%
COc1ccc(CCNc2nc3ccc(C)cc3n3cnnc23)cc1OC | inactive: -4.83%
Cc1cc(C)cc(NC(=O)C(CC(C)C)NC(=O)C2CCCCC2)c1 (stereo not drawn) | inactive: 14.3%
CN(C)c1ccc(C(=O)Nc2c(C(=O)NC(C)(C)C)oc3ccccc23)cc1 | inactive: -9.13%
CC(C)Oc1ccc(CNC(=O)c2ccc3nc(C(C)C)oc3c2)cc1 | inactive: -12.2%
CCc1ccccc1N1CC(c2nc3ccccc3n2CCOc2ccc(Cl)c(C)c2)CC1=O (stereo not drawn) | active: 77.1%
CCNc1nc(NC(C)(C)C)nc(Oc2ccc(=O)n(-c3ccccc3)n2)n1 | inactive: 32%
CCn1c(C(=O)N2CCC(C(=O)N3CCN(c4ccc(OC)cc4)CC3)CC2)cc2sccc21 | inactive: 14.9%
COc1ccc(S(=O)(=O)N(CC(=O)Nc2cc(C)cc(C)c2)c2ccc(Cl)cc2)cc1 | inactive: -1.2%
COc1ccc(Cl)cc1N=C1NC(=O)CC(C(=O)Nc2ccccc2C(F)(F)F)S1 (stereo not drawn) | inactive: 13.3%
CCc1nn2c(=O)cc(COC(=O)c3ccc4c(c3)OCO4)nc2s1 | inactive: 29.4%
O=C(NCCn1cc(SCc2ccccc2)c2ccccc21)c1cccs1 | inactive: 20.1%
CCCc1cc(=O)[nH]c(Nc2ccccc2O)n1 | inactive: 6.57%
COc1ccc(-c2nc3scc(CCNS(=O)(=O)c4c(C)cc(C)cc4C)n3n2)cc1OC | inactive: -11.2%
NC(=O)c1ncn([C@@H]2O[C@H](CO)[C@@H](O)[C@H]2O)c1N | inactive: 7.7%
CC(=O)c1c(C)n(-c2ccc(Cl)cc2)c2ccc(OC(=O)COc3ccccc3)cc12 | inactive: 3.73%
